In a collection of fitness landscapes (doi:10.1126/science.1257360):
The other results are listed elsewhere or left out.

B1: PhoQ; a variant is named by its letters at X, in order, P23837 (parent)
chain: MKKLLRLFFPLSLRVRFLLATAAVVLVLSLAYGMVALIGYSVSFDKTTFRLLRGESNLFYTLAKWENNKLHVELPENIDKQSPTMTLIYDENGQLLWAQRDVPWLMKMIQPDWLKSNGFHEIEADVNDTSLLLSGDHSIQQQLQEVREDDDDAEMTHSVAVNVYPATSRMPKLTIVVVDTIPVELKSSYMVWSWFIYVLSANLLLVIPLLWVAAWWSLRPIEALAKEVRELEEHNRELLNPATTRELTSLVRNLNRLLKSERERYDKYRTTLTDLTHSLKTPLXXLQXXLRSLRSEKMSVSDAEPVMLEQISRISQQIGYYLHRASMRGGTLLSRELHPVAPLLDNLTSALNKVYQRKGVNISLDISPEISFVGEQNDFVEVMGNVLDNACKYCLEFVEISARQTDEHLYIVVEDDGPGIPLSKREVIFDRGQRVDTLRPGQGVGLAVAREITEQYEGKIVAGESMLGGARMEVIFGRQHSAPKDE

Variants of: B1
Assay: enrichment ratio after two sorts for PhoP signalling (ratio (wild type AVST 3.29)); higher = more functional
Conditions: with PhoP (E. coli)

Variant | enrichment ratio
FLEQ | ≤ 0.25
EQRG | ≤ 0.25
FKED | ≤ 0.25
TNTA | 10.1
DVHR | ≤ 0.25
MEIA | ≤ 0.25
VTDP | ≤ 0.25
EMSH | ≤ 0.25
SRWL | ≤ 0.25
GRRH | ≤ 0.25
SRVS | ≤ 0.25
HFTQ | ≤ 0.25
YEWT | 0.634
YYMV | ≤ 0.25
DPPT | ≤ 0.25
MYDW | ≤ 0.25
FFAM | ≤ 0.25
LWSE | ≤ 0.25
NVNR | ≤ 0.25
CRYF | ≤ 0.25
MCCI | ≤ 0.25
AHFD | ≤ 0.25
LVRR | ≤ 0.25
QFPW | ≤ 0.25

Variant | enrichment ratio
QYRS | ≤ 0.25
KTEC | ≤ 0.25
FCQS | ≤ 0.25
YFNS | ≤ 0.25
LGWH | ≤ 0.25
AMYV | ≤ 0.25
PKWY | ≤ 0.25
MGVK | ≤ 0.25
WVQF | ≤ 0.25
HPVE | ≤ 0.25
RGYD | ≤ 0.25
PDWI | ≤ 0.25
PNRK | ≤ 0.25
ECVP | ≤ 0.25
AEQT | 10.8
LPYH | ≤ 0.25
VIYG | ≤ 0.25
DHWE | ≤ 0.25
GTRN | ≤ 0.25
EDTD | ≤ 0.25
IFRI | ≤ 0.25
RKTM | ≤ 0.25
VDPI | ≤ 0.25
FSNF | ≤ 0.25

Variant | enrichment ratio
VTRI | ≤ 0.25
GPDD | ≤ 0.25
KAMI | ≤ 0.25
QVNF | 1.28
IQDA | ≤ 0.25
VPLA | ≤ 0.25
RDMP | ≤ 0.25
SYLN | ≤ 0.25
GMPI | ≤ 0.25
TNTC | 11.6
IRRT | ≤ 0.25
SSHL | 3.31
FRHR | ≤ 0.25
ALHQ | ≤ 0.25
WAPH | ≤ 0.25
ESRP | ≤ 0.25
SKDC | ≤ 0.25
KLLV | ≤ 0.25
QEHS | 8.42
DYGA | ≤ 0.25
LHTC | ≤ 0.25
FTPN | ≤ 0.25
LVFY | ≤ 0.25
NLWM | ≤ 0.25

Variant | enrichment ratio
EFTN | ≤ 0.25
GKNL | ≤ 0.25
DNHT | ≤ 0.25
HRVK | ≤ 0.25
PPTS | ≤ 0.25
KYRW | ≤ 0.25
AFRA | ≤ 0.25
HDGC | ≤ 0.25
NRTF | ≤ 0.25
DVDV | ≤ 0.25
PRPY | ≤ 0.25
MIYV | 7.62
IPCG | ≤ 0.25
KFHS | ≤ 0.25
SVQE | ≤ 0.25
AKIK | ≤ 0.25
NWSA | ≤ 0.25
FWPD | ≤ 0.25
HRHW | ≤ 0.25
NGGG | ≤ 0.25
FNIG | ≤ 0.25
MIGA | ≤ 0.25
AQPF | ≤ 0.25
QKPM | ≤ 0.25

Variant | enrichment ratio
LAID | ≤ 0.25
LHFC | ≤ 0.25
FPFF | ≤ 0.25
PSQL | ≤ 0.25
WRLN | ≤ 0.25
PLMQ | ≤ 0.25
YYHN | ≤ 0.25
SACW | 1.34
IVPW | ≤ 0.25
KTTS | ≤ 0.25
VLFP | ≤ 0.25
KICT | ≤ 0.25
FNVG | ≤ 0.25
ERQF | ≤ 0.25
YIWV | ≤ 0.25
EMRR | ≤ 0.25
RWAL | ≤ 0.25
FNGP | ≤ 0.25
MVPE | ≤ 0.25
ALPK | ≤ 0.25
SLKT | ≤ 0.25
PASR | ≤ 0.25
AINT | ≤ 0.25
KQIL | ≤ 0.25

Variant | enrichment ratio
SMSQ | 11.1
RQSV | ≤ 0.25
SKVQ | 5.75
VWCH | ≤ 0.25
YLRF | ≤ 0.25
YRYS | ≤ 0.25
MAIV | ≤ 0.25
NFHI | ≤ 0.25
VHMQ | ≤ 0.25
FGDT | ≤ 0.25
QSLI | ≤ 0.25
TITN | 5.09
ELSI | ≤ 0.25
NVFW | ≤ 0.25
RNMF | ≤ 0.25
EMTR | ≤ 0.25
FKKD | ≤ 0.25
DCEI | ≤ 0.25
WYRV | ≤ 0.25
KCFH | ≤ 0.25
WQPG | ≤ 0.25
STMS | 15.6
TDTD | ≤ 0.25
LTNK | ≤ 0.25

Variant | enrichment ratio
DYCR | ≤ 0.25
EQDR | ≤ 0.25
IRMN | ≤ 0.25
SWAH | ≤ 0.25
IIFH | ≤ 0.25
SWMT | ≤ 0.25
KELL | ≤ 0.25
RSKL | ≤ 0.25
SMYA | ≤ 0.25
APKL | ≤ 0.25
IFAQ | ≤ 0.25
MRAY | ≤ 0.25
LYCR | ≤ 0.25
AHHD | ≤ 0.25
QDDQ | ≤ 0.25
HLYM | ≤ 0.25
VTGV | ≤ 0.25
YGRM | ≤ 0.25
ENIP | ≤ 0.25
QLEP | ≤ 0.25
ILKK | ≤ 0.25
FHDN | ≤ 0.25
YLAA | ≤ 0.25
FYQR | ≤ 0.25

Variant | enrichment ratio
ATMW | 26.9
FEYN | ≤ 0.25
AMTM | 11.1
ESFY | ≤ 0.25
NQYY | ≤ 0.25
NPYA | ≤ 0.25
NCSD | ≤ 0.25
NMPV | ≤ 0.25
NNLD | ≤ 0.25
NENC | ≤ 0.25
ITFS | ≤ 0.25
RVHC | ≤ 0.25
HSQF | ≤ 0.25
IVSI | ≤ 0.25
THNE | ≤ 0.25
VPLD | ≤ 0.25
GYNQ | ≤ 0.25
IYKQ | ≤ 0.25
TIPK | ≤ 0.25
NFNQ | ≤ 0.25
IPHV | ≤ 0.25
FQWI | ≤ 0.25
RYFN | ≤ 0.25
YFKC | ≤ 0.25

Variant | enrichment ratio
IYYW | ≤ 0.25
TFCY | 0.755
YIYT | ≤ 0.25
QQHH | ≤ 0.25
GKHW | ≤ 0.25
LKDL | ≤ 0.25
WLIG | ≤ 0.25
DEIN | ≤ 0.25
VQPT | ≤ 0.25
DSQC | ≤ 0.25
FWYP | ≤ 0.25
MWLG | ≤ 0.25
EYCN | ≤ 0.25
IVLL | 1.17
QTPD | ≤ 0.25
HYLG | ≤ 0.25
TWHD | ≤ 0.25
YRGD | 0.618
HKPS | ≤ 0.25
PQRE | ≤ 0.25
YTKN | ≤ 0.25
STHH | ≤ 0.25
PTIS | ≤ 0.25
LRNV | ≤ 0.25

Variant | enrichment ratio
KYDS | ≤ 0.25
ADKR | ≤ 0.25
QWHT | ≤ 0.25
QMCD | ≤ 0.25
FHCD | ≤ 0.25
GWIL | ≤ 0.25
QCPD | ≤ 0.25
IYEK | ≤ 0.25
EFWN | ≤ 0.25
VEDT | ≤ 0.25
KGHY | ≤ 0.25
KVPL | ≤ 0.25
AKRF | ≤ 0.25
VDVP | ≤ 0.25
HPCW | ≤ 0.25
MRVS | ≤ 0.25
MRKS | ≤ 0.25
LEVD | ≤ 0.25
AFGP | ≤ 0.25
DAKS | ≤ 0.25
WFIM | ≤ 0.25
WLTD | ≤ 0.25
TSTP | ≤ 0.25
WIAP | ≤ 0.25

Variant | enrichment ratio
QSGM | 21.6
LVQK | ≤ 0.25
IGDE | ≤ 0.25
YTNG | ≤ 0.25
WFIH | ≤ 0.25
SESY | 25.4
IYHR | ≤ 0.25
NPDL | ≤ 0.25
QTKP | ≤ 0.25
PQND | ≤ 0.25
SIYI | ≤ 0.25
IQIS | ≤ 0.25
WRTD | ≤ 0.25
HQNG | ≤ 0.25
RQAH | ≤ 0.25
DRTD | ≤ 0.25
KRAG | ≤ 0.25
IPPK | ≤ 0.25
NSCR | ≤ 0.25
KRYN | ≤ 0.25
SCRP | ≤ 0.25
LFAG | ≤ 0.25
NAFN | ≤ 0.25
FHND | ≤ 0.25

Variant | enrichment ratio
YSNI | ≤ 0.25
AQRG | ≤ 0.25
YTQV | ≤ 0.25
AFKC | ≤ 0.25
HNGS | ≤ 0.25
GMVD | ≤ 0.25
WNTF | ≤ 0.25
FEFW | ≤ 0.25
FDRT | ≤ 0.25
GMFC | ≤ 0.25
VEIY | ≤ 0.25
RSMV | ≤ 0.25
WPEG | ≤ 0.25
PLLR | ≤ 0.25
SEKY | ≤ 0.25
SMDF | ≤ 0.25
WFKA | ≤ 0.25
VWDP | ≤ 0.25
LMGQ | ≤ 0.25
LSWF | ≤ 0.25
RLGW | ≤ 0.25
KHLI | ≤ 0.25
TQHY | 1.07
NHDG | ≤ 0.25

Variant | enrichment ratio
GALH | 6.12
DRVK | ≤ 0.25
ALGG | ≤ 0.25
TCRN | ≤ 0.25
KEAQ | ≤ 0.25
WDRY | ≤ 0.25
THQH | 23.5
EFVH | ≤ 0.25
DVHA | ≤ 0.25
LGHV | ≤ 0.25
HEWI | ≤ 0.25
RWDM | ≤ 0.25
FAMQ | 45
VSYA | ≤ 0.25
RCRD | ≤ 0.25
IFEL | ≤ 0.25
FHLE | ≤ 0.25
WMRA | ≤ 0.25
